# Experimental data: PubChem BioAssay AID1745853 (National Center for Advancing Translational Sciences (NCATS), 2022)
# “And” between values parts separate entries of the source, which are not always exact repeats. Identical values can stand only once. The list shows a part of the results. The main result of the screen is listed elsewhere. These columns were measured beside it and carry no call.
# What was measured:
# Test in all cases: Primary Screen for Target Class Profiling of Small Molecule Inhibitors of Methyltransferases
# [1] = molecular target: Glycine N-methyltransferase (Homo sapiens) (UniProt Q14749); details: purified enzyme, MTase-Glo SAH luminescence; measured here: GNMT inhibition; at 40 µM; stronger effect = lower value
# How it was run: (§1)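 Each enzyme was reacted with SAM and its substrate, with compounds tested once at 40 uM; SAH formed was read by MTase-Glo luminescence.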
# [2] = molecular target: Guanidinoacetate N-methyltransferase (Homo sapiens) (UniProt Q14353); details: purified enzyme, MTase-Glo SAH luminescence; measured here: GAMT inhibition; at 40 µM; stronger effect = lower value
# How it was run: as §1
# [3] = molecular target: Histamine N-methyltransferase (Homo sapiens) (UniProt P50135); details: purified enzyme, MTase-Glo SAH luminescence; measured here: HNMT inhibition; at 40 µM; stronger effect = lower value
# How it was run: as §1
# [4] = molecular target: Nicotinamide N-methyltransferase (Homo sapiens) (UniProt P40261); details: purified enzyme, MTase-Glo SAH luminescence; measured here: NNMT inhibition; at 40 µM; stronger effect = lower value
# How it was run: as §1
# [5] = molecular target: Phenylethanolamine N-methyltransferase (Homo sapiens) (UniProt P11086); details: purified enzyme, MTase-Glo SAH luminescence; measured here: PNMT inhibition; at 40 µM; stronger effect = lower value
# How it was run: as §1
# On the % scale 0 is the no-effect control and ±100 the full control effect.
SMILES,"activity change, negative = inhibition [1]","activity change, negative = inhibition [2]","activity change, negative = inhibition [3]","activity change, negative = inhibition [4]","activity change, negative = inhibition [5]"
C/C1=C/CCC2=CC(OC2=O)C(C)(C)/C=C/C1=O (stereo not given),-3.13%,-3.93%,8.3%,-14.4%,-9.73%
C[C@@H](Oc1cc(-c2cnn(C3CCNCC3)c2)cnc1N)c1c(Cl)ccc(F)c1Cl,-36.2% and -57.3% and -28.5%,-8.99% and -31.7%,-59.7% and -64.1% and -25.9%,-70.4% and -73.3% and -31.9%,-29% and -54.9% and 4.43%
O=c1c2ccccc2n2c(=O)n(Cc3ccccc3F)nc2n1Cc1ccc(F)cc1,7.67%,0.728%,11.6%,0.611%,5.93%
CCOc1ccc(C(=O)Cn2nc3n(CC(C)C)c(=O)c4ccccc4n3c2=O)cc1,2.64%,5.66%,6.48%,-3.72%,2.18%
N[C@@H](CCNCc1ccc(Cl)cc1)C(=O)N1CCCCC1,4.76%,7.75%,10.8%,-7.7%,5.56%
COC(=O)C(Cc1c[nH]c2ccccc12)NC(=O)c1ccccc1Br (stereo not given),-0.128%,1.15%,-30.2%,7.85%,0.832%
CC1Oc2ccc(NC(=O)c3cccs3)cc2CN(CCOc2ccccc2)C1=O (stereo not given),-6.69%,-6.69%,-1.83%,-7.91%,-2.49%
COc1cccc(C(=O)N2CC(=O)N(Cc3ccc(Cl)cc3)CC(O)C2)c1 (stereo not given),-0.654%,1.31%,2.48%,-4.39%,-6.24%
CC1(C(=O)NC2CCCC2)Cn2c(ccc2-c2ccco2)C(=O)N1CCCN1CCOCC1 (stereo not given),5.26%,2.36%,7.77%,13.6%,0.976%
O=c1c2ccccc2n2c(-c3cccc(F)c3)nnc2n1Cc1ccc(F)cc1,-5.64%,2.82%,3.65%,2.07%,-1.05%
COc1ccc(N2C(=O)c3ccc(-c4ccco4)n3CC2(C)C(=O)NC2CCCC2)cc1OC (stereo not given),0.677%,0%,9.96%,7.9%,3.02%
N#Cc1ccccc1CN1CCN(Cc2ccccc2)CC(O)C1 (stereo not given),-2.82%,-0.331%,-3.81%,-5.48%,3.71%
CC1=NOC(C(=O)N2CCCn3nc(C(=O)NCCN(C)C)cc3C2)C1 (stereo not given),0.756%,-1.6%,0.862%,3.45%,0.703%
CSc1ncc(CN2CCC(n3nccc3NC(=O)Cc3ccccc3)CC2)cn1,-0.737%,-0.567%,1.12%,-5.71%,15.6%
CCC1c2ccc(C)n2CCN1C(=O)Nc1cccc(SC)c1 (stereo not given),-9.6%,1.63%,-12.5%,-17.2%,-13.1%
N#Cc1cccc(C(=O)Nc2cc(-c3ccccc3)nn2-c2ccccc2)c1,-0.901%,-3.48%,6.7%,-17.4%,-1.83%
CCn1ccc(C(=O)N2CCCn3ccnc3C2c2cnn(C)c2)n1 (stereo not given),-1.25%,-3.1%,1.76%,-0.189%,9.85%
CCC(C)NC(=O)c1ccc2c(=O)n(CC(C)C)c3nn(CC(=O)c4cc(C)ccc4C)c(=O)n3c2c1 (stereo not given),-2.64%,-0.566%,-0.118%,-6.56%,-2.09%
